Results taken from the supplement of paper PMC5998384.

What was measured:
HeLa Kyoto [1] = test: melting temperature (median over replicates), in situ; higher = more thermally stable
HeLa Kyoto [2] = test: solubility change mitosis vs G1/S (difference of NP-40 vs SDS log2 ratios) (log2 ratio difference); higher = more soluble in mitosis
HeLa Kyoto [3] = test: solubility in G1/S (NP-40 vs SDS abundance) (log2 ratio); higher = more soluble; settings: cell cycle stage: G1/S
HeLa Kyoto [4] = test: thermal stability score vs G1/S (z-score of summed log2 fold changes over temperatures); higher = more thermally stable than in G1/S
[5] = cell cycle stage: early G1 (4.5 h after nocodazole release)
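Throughout, for melting temperature (median over replicates), in situ: HeLa Kyoto cells synchronized by double thymidine or nocodazole block, proteins quantified by TMT10plex mass spectrometry, three independent biological replicates.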
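Throughout, for solubility change mitosis vs G1/S (difference of NP-40 vs SDS log2 ratios): synchronized HeLa Kyoto cells (double thymidine block for G1/S, nocodazole release for mitosis), protein amounts in NP-40 versus SDS lysates quantified by mass spectrometry, three biological replicates.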
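Throughout, for solubility in G1/S (NP-40 vs SDS abundance): HeLa Kyoto cells arrested at G1/S by double thymidine block, proteins quantified by TMT10plex mass spectrometry in mild NP-40 versus SDS extracts, three biological replicates.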
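Throughout, for thermal stability score vs G1/S (z-score of summed log2 fold changes over temperatures): synchronized HeLa Kyoto cells, proteins quantified by TMT10plex mass spectrometry, three biological replicates, mitosis taken 0.5 h after nocodazole release, G1/S directly after double thymidine block.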

Row | Sequence | melting temperature (HeLa Kyoto [1]; cell cycle stage: G1/S) [°C] | melting temperature (HeLa Kyoto [1]; cell cycle stage: mitosis) [°C] | solubility change mitosis (log2) (HeLa Kyoto [2]) | solubility in G1/S (log2) (HeLa Kyoto [3]) | thermal stability score (HeLa Kyoto [4]; [5]) | thermal stability score (HeLa Kyoto [4]; cell cycle stage: mitosis)
1 | MSARLPVLSPPRWPRLLLLSLLLLGAVPGPRRSGAFYLPGLAPVNFCDEEKKSDECKAEIELFVNRLDSVESVLPYEYTAFDFCQASEGKRPSENLGQVLFGERIEPSPYKFTFNKKETCKLVCTKTYHTEKAEDKQKLEFLKKSMLLNYQHHWIVDNMPVTWCYDVEDGQRFCNPGFPIGCYITDKGHAKDACVISSDFHERDTFYIFNHVDIKIYYHVVETGSMGARLVAAKLEPKSFKHTHIDKPDCSGPPMDISNKASGEIKIAYTYSVSFEEDDKIRWASRWDYILESMPHTHIQWFSIMNSLVIVLFLSGMVAMIMLRTLHKDIARYNQMDSTEDAQEEFGWKLVHGDIFRPPRKGMLLSVFLGSGTQILIMTFVTLFFACLGFLSPANRGALMTCAVVLWVLLGTPAGYVAARFYKSFGGEKWKTNVLLTSFLCPGIVFADFFIMNLILWGEGSSAAIPFGTLVAILALWFCISVPLTFIGAYFGFKKNAIEHPVRTNQIPRQIPEQSFYTKPLPGIIMGGILPFGCIFIQLFFILNSIWSHQMYYMFGFLFLVFIILVITCSEATILLCYFHLCAEDYHWQWRSFLTSGFTAVYFLIYAVHYFFSKLQITGTASTILYFGYTMIMVLIFFLFTGTIGFFACFWFVTKIYSVVKVD [TM9SF2] | 54.7 | 55.3 | -0.0605 | -0.234 | 1.95 | 0.195
2 | MTAPEKPVKQEEMAALDVDSGGGGGGGGGHGEYLQQQQQHGNGAVAAAAAAQDTQPSPLALLAATCSKIGPPSPGDDEEEAAAAAGAPAAAGATGDLASAQLGGAPNRWEVLSATPTTIKDEAGNLVQIPSAATSSGQYVLPLQNLQNQQIFSVAPGSDSSNGTVSSVQYQVIPQIQSADGQQVQIGFTGSSDNGGINQESSQIQIIPGSNQTLLASGTPSANIQNLIPQTGQVQVQGVAIGGSSFPGQTQVVANVPLGLPGNITFVPINSVDLDSLGLSGSSQTMTAGINADGHLINTGQAMDSSDNSERTGERVSPDINETNTDTDLFVPTSSSSQLPVTIDSTGILQQNTNSLTTSSGQVHSSDLQGNYIQSPVSEETQAQNIQVSTAQPVVQHLQLQESQQPTSQAQIVQGITPQTIHGVQASGQNISQQALQNLQLQLNPGTFLIQAQTVTPSGQVTWQTFQVQGVQNLQNLQIQNTAAQQITLTPVQTLTLGQVAAGGAFTSTPVSLSTGQLPNLQTVTVNSIDSAGIQLHPGENADSPADIRIKEEEPDPEEWQLSGDSTLNTNDLTHLRVQVVDEEGDQQHQEGKRLRRVACTCPNCKEGGGRGTNLGKKKQHICHIPGCGKVYGKTSHLRAHLRWHSGERPFVCNWMYCGKRFTRSDELQRHRRTHTGEKKFVCPECSKRFMRSDHLAKHIKTHQNKKGIHSSSTVLASVEAARDDTLITAGGTTLILANIQQGSVSGIGTVNTSATSNQDILTNTEIPLQLVTVSGNETME [SP3] | – | 52.5 | 0.162 | -0.349 | -1.44 | -3.87
